# Reference: publication PMC4336329 (PLoS ONE, 2015)
# Among all 310,000 compounds or so, about 14,000 (4.5%) showed an effect of 50% or more. Effects have a minus sign here. Some of the results follow.
# Molecular target: human ether-à-go-go-related gene (hERG) potassium channel (human, UniProt Q12809)
# Assay: primary screen, population patch clamp on CHO cells stably expressing hERG
# 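Note: peak tail current of the secondary pulse compared with the same well before compound.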
# Sequence of human ether-à-go-go-related gene (hERG) potassium channel (Q12809 whole entry, looked up): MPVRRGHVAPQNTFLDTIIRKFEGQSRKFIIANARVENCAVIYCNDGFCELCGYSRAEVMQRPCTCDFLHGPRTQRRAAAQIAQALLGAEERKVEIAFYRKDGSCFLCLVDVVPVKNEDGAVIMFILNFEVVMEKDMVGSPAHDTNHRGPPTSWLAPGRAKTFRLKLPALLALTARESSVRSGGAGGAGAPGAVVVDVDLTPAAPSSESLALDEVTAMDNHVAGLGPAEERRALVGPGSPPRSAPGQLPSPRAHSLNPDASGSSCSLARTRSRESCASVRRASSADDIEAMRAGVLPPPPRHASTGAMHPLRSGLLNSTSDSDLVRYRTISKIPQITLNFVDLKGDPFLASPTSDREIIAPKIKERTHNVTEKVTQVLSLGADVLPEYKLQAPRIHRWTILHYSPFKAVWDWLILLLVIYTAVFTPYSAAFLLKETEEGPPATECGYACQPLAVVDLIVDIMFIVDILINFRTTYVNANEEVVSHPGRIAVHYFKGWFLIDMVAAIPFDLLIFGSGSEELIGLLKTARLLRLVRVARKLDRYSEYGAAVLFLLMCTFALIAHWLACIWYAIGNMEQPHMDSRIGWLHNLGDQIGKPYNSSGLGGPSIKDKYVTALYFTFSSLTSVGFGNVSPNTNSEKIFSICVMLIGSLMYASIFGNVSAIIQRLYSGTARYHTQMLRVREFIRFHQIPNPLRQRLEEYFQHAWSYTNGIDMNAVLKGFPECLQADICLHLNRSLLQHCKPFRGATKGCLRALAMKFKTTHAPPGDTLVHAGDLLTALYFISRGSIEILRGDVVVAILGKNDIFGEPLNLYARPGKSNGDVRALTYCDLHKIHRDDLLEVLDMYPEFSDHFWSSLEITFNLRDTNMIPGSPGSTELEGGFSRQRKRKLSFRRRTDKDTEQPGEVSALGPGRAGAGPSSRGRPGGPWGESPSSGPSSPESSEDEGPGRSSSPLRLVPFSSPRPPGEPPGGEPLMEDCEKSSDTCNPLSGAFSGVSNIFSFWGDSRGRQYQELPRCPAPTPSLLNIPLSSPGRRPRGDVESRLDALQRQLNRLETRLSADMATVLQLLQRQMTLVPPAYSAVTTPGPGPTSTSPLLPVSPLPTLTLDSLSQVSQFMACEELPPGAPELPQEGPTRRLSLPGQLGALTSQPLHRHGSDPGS
row,SMILES,"hERG current change (%, negative = inhibition) at 10uM [%]"
1,CC(C)CN(CCNC(=O)CC1Oc2ccccc2NC1=O)CC(C)C (stereo not shown),-27.7
2,COCCCN1Cc2cccc(C(=O)O)c2C1=O,-3.51
3,C/C(=N\NC(=O)CCc1ccc(S(=O)(=O)N2CCOCC2)cc1)c1ccccc1Cl,3.18
4,COc1ccc(CC(=O)Nc2nc(-c3ccccc3)c(C(C)=O)s2)cc1OC,19.8
5,COc1cccc(C(=O)NCc2ccccc2OC)c1,-4.18
6,Cc1cc2nnc(SCc3ccccc3)n2c(N)n1,-14.8
7,COCCN(Cc1ccccc1)C(=O)c1cccc(S(=O)(=O)N(C)c2c(C)n(C)n(-c3ccccc3)c2=O)c1,-10.7
8,Cc1cccc(NC2=NC3(CCCCC3)N=C(N)N2)c1,-0.675
9,Cc1cc(-c2nnc(CCC(=O)NC(C)c3cccc4ccccc34)o2)no1 (stereo not shown),-3.86
10,CC(=O)Nc1nc2ccc(C(=O)NC3CCCCC3)cc2s1,-1.99
11,CC(C)[n+]1ccn(C2=C([O-])c3ccccc3C(=O)/C2=N\S(=O)(=O)c2ccccc2)c1,10.8
12,COc1ccc(-n2nnc3c(SCC(=O)OCc4ccccc4)ncnc32)cc1,1.5
13,O=C(c1cccc2ccccc12)n1nnc2ccccc21,11.7
14,O=C(NC(C(=O)O)c1ccccc1)c1ccc(S(=O)(=O)N2CCOCC2)cc1 (stereo not shown),-6.67
15,Cc1cc(-c2ccccc2)nc(SC(C(=O)O)c2ccccc2)n1 (stereo not shown),26.5
16,COC(=O)CSc1nc2ccccc2o1,5.57
17,CC1CCC(NC(=O)C2c3ccccc3C(=O)N2Cc2ccc3c(c2)OCO3)CC1 (stereo not shown),8.2
18,CCOC(=O)N1CCN(Cc2nc3cc(NC(=O)c4cccs4)ccc3n2CC)CC1,-55.3
19,C/C(=C1/SC(N2CCOCC2)=NC1=O)c1ccc(Br)cc1,14.8
20,Cc1ccccc1N1CCN(Cc2ccc3c(c2)OCO3)CC1,-31.2
21,Cc1cc(C(=O)c2ccccc2)c(NC(=O)CN2CCOCC2)s1,6.31
22,CC(=O)Nc1cc(C(=O)N2CCc3ccccc3C2)ccc1Sc1ccc(C)cc1,-53.6

row,SMILES,"hERG current change (%, negative = inhibition) at 10uM [%]"
1,Cc1ccc(NC(=O)NC(=O)CN2CCCC2c2ccc3c(c2)OCCO3)cc1C (stereo not shown),-3.12
2,O=C(NCc1cccnc1)C1CCN(c2ccc(S(=O)(=O)N3CCOCC3)cc2Cl)CC1,-41.3
3,O=C(CSc1nnc2scc(-c3ccc(F)cc3)n12)NCc1ccco1,9.31
4,Cc1ccsc1C(=O)OCC(=O)NCCC1=CCCCC1,10.8
5,CCN(CC)S(=O)(=O)c1ccc(-c2nnc(SCc3nnc(-c4ccc(C)cc4)o3)n2CC)cc1,-55.2
6,C/C(Cl)=C/Cn1c(SC(C)C)nc2c1c(=O)[nH]c(=O)n2C,-6.63
7,CC(=O)Nc1ccc(NC(=O)COC(=O)c2ccccc2SCC(=O)N2CCCC2)cc1,5.48
8,CC1(C)O[C@@H]2[C@H](O1)[C@@H](COS(=O)(=O)[O-])O[C@H]2n1cnc2c(=O)[nH]cnc21.[K+],19.8
9,O=C(/C=C/C=C/c1ccccc1)c1ccco1,9.52
10,Cc1cc(=O)[nH]c(CN2CCOCC2)n1,17.3
11,O=S(=O)(NC1CC1)c1ccc(S(=O)(=O)N(Cc2ccccn2)C2CCCC2)cc1,-47.2
12,CN1C(=O)/C(=C\c2ccc(OC(=O)c3ccco3)cc2)SC1=S,24.1
13,Cn1nccc1C(=O)N1CCN(c2ncccn2)CC1,14.6
14,CS(=O)(=O)c1ccc(C(=O)Nc2cc(-c3ccccc3)nn2-c2ccccc2)cc1,-23.3
15,CO/C=C\C=C/c1nnn(-c2ccc(Cl)cc2)n1,-0.625
16,CCN(C(=O)c1cc2c(=O)[nH]c3ccc(C)cc3c2s1)c1ccc(OC)cc1,9.09
17,CCCC(NC(=O)C(C)NC(=O)CO/N=C1\C=C2CCC3C4CCC(C(C)=O)[C@@]4(C)CCC3[C@@]2(C)CC1)C(=O)O (stereo partly shown),11.6
18,Cn1c(Cc2cccc3ccccc23)nnc1SCC(=O)N1CCN(c2ccccc2)CC1,-43.2
19,CCc1cc([N+](=O)[O-])cc(CC)c1N,-6.21
20,OCCOCCNc1ncnc2c1cnn2-c1ccc(Cl)cc1,9.06
21,COc1ccc(NC(=O)c2ncn[nH]2)cc1,7.17
22,Cc1c(NC2(C#N)CCCC2)c(=O)n(-c2ccccc2)n1C,14

row,SMILES,"hERG current change (%, negative = inhibition) at 10uM [%]"
1,COC(=O)c1cc(S(=O)(=O)N2CCCCC2)ccc1N1CCOCC1,-48
2,CC(Sc1ccc(Cl)cc1)C(=O)NNC(=O)c1ccncc1 (stereo not shown),-6.23
3,COc1ccc(CCNC(=O)Cc2cccs2)cc1,19.8
4,Cc1ccc(S(=O)(=O)N(Cc2cccc(C(F)(F)F)c2)C(=O)N2CCN(C)CC2)cc1,10.3
5,N#Cc1nc(COc2ccccc2F)oc1NCCCn1ccnc1,-42.5
6,Cc1cccc(NC(=O)Nc2cccnc2)c1C,9.88
7,O=C(/C=C/c1ccccc1[N+](=O)[O-])Nc1ccc(S(=O)(=O)Nc2ncccn2)cc1,1.95
8,CCc1nnc(NC(=O)c2cc(S(=O)(=O)N3CCCCC3)ccc2N2CCOCC2)s1,-2.95
9,N#Cc1ccccc1N/C=C/C(=O)c1ccc(Cl)cc1,-11.1
10,COc1cccc(N(CC(=O)NCCSc2ccccc2)S(C)(=O)=O)c1,-6.04
11,CCOc1ccc(Cl)cc1CSc1n[nH]c(CC)n1,-4.9
12,CC(CCc1ccccc1)NC(=O)C(=O)Nc1ccccc1 (stereo not shown),-0.607
13,COCc1cc(=O)n2c(-c3ccccc3OC)n[nH]c2n1,4.45
14,Cc1cc(C(=O)CSc2cccc[n+]2[O-])c(C)n1-c1ccc(OC(F)F)cc1,-61.9
15,COc1cccc(CC(=O)N2CCN(S(=O)(=O)c3ccc(Br)cc3)CC2)c1,-41.2
16,CCN(c1ccccc1)c1cc(C)nc2ncnn12,2.52
17,Cc1ccc(CNC(=O)C2CCC(=O)N(C3CC3)C2)cc1 (stereo not shown),22.6
18,Cc1cc(C)nc(NC(=NCCc2c[nH]c3ccccc23)NC(=O)Nc2ccc(Cl)c(Cl)c2)n1,17.9
19,Cc1cc(N2CCN(C(=O)c3ccco3)CC2)n2nc(-c3cccc(F)c3)cc2n1,-36.4
20,CCOc1ccc(-n2cc(-c3ccccc3)c3c(=O)[nH]cnc32)cc1,17.2
21,CCCCOc1ccc(C(=O)Nn2cnnc2)cc1,-0.225
22,O=c1[nH]nc(SCc2cc(Cl)ccc2Cl)c(=O)[nH]1,-9.12

row,SMILES,"hERG current change (%, negative = inhibition) at 10uM [%]"
1,O=C(COc1ccccc1[N+](=O)[O-])N(C1CCCCC1)C1CCS(=O)(=O)C1 (stereo not shown),1.99
2,COc1ccc(CN2CCC(n3nccc3NC(=O)c3ccc4c(c3)OCO4)CC2)cc1C,-80.6
3,Cc1ccc2cc(C3CC(c4ccco4)=NN3S(=O)(=O)c3ccccc3)c(Cl)nc2c1 (stereo not shown),-2.11
4,COc1ncnc(OC)c1S(=O)(=O)Nc1ccc(C(F)(F)F)cc1,7.74
5,CCCCOc1ccc(C2CC(=O)NC2=O)cc1 (stereo not shown),6.05
6,CN(C)c1nc2c(c(=O)n(C)c(=O)n2C)n1CC(=O)c1cccs1,-5.11
7,CN1OC(COC(=O)c2ccc(Cl)cc2)CC1c1ccccc1 (stereo not shown),-4.56
8,COC(=O)Nc1ccc(S(=O)(=O)NNC(=O)c2c(O)c3ccccc3[nH]c2=O)cc1,19.8
9,COc1ccc(C(=O)C2CCCN(S(=O)(=O)N(C)C)C2)c(C)c1 (stereo not shown),0.683
10,COCCOC(=O)C1=C(C)OC(N)=C(C#N)C1c1ccco1 (stereo not shown),10.3
11,C/C=C/C=C\C(=O)Nc1cccc(C2=NOC3(C2)C[C@H](C(N)=O)N(C(=O)/C=C/C)C3)c1 (stereo partly shown),10
12,CC(=O)c1ccc(C(=O)N2CCCC(C(=O)c3ccc(Cl)cc3)C2)s1 (stereo not shown),-35.1
13,O=C(O)C1CCCC2CN3CCc4c([nH]c5ccccc45)C3C(O)C21 (stereo not shown),13.7
14,O=C(CN1C(=O)CCSc2ccc(S(=O)(=O)N3CCOCC3)cc21)Nc1ccccc1Cl,-10.2
15,CSCCC(NC(=O)c1ccccc1Cl)C(=O)N1CCN(C(C)=O)CC1 (stereo not shown),-26.9
16,Cn1cccc1/C=N\NC(=O)c1cncc(Br)c1,-9.78
17,O=C(c1nc2nc(-c3ccccc3)cc(C(F)(F)F)n2n1)N1CCCCC1,-14.6
18,Cn1c(=O)c2c(nc3n2CC(CO)O3)n(C)c1=O (stereo not shown),4.2
19,CS(=O)Cc1cc(Sc2ccccc2)nc(-c2ccncc2)n1 (stereo not shown),-33
20,CCOC(=O)c1nn(-c2ccc(C)cc2)c(=O)cc1OCC(=O)Nc1cccc(OC)c1,1.6
21,O=C(CN1CCN(S(=O)(=O)c2ccc(Cl)cc2)CC1)Nc1ccc(F)cc1F,-78.3
22,Fc1ccccc1NC(=S)NCCc1ccccc1,7.89
